Source: publication PMC12820563
Some of the results follow. The list includes weakly bound sequences.

What follows are sequences tested against T1, MBP-FoxP3dN (UniProt Q99JB6) (assay: PD-seq (MBP pull-down with sequencing)). Settings: 20 mM Tris-HCl pH 7.5, 100 mM NaCl, 1.5 mM MgCl2, 0.4 uM protein, 0.1 uM dsDNA library, 30 min, room temperature, amylose pull-down; high values mean tight binding; double strand, one strand shown.
T1 sequence: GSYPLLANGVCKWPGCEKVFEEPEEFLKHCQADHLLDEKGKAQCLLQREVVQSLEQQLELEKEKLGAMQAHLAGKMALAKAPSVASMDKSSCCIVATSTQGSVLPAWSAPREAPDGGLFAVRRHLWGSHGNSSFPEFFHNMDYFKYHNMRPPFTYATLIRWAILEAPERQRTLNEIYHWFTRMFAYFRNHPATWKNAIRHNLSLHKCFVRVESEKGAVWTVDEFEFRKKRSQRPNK
“GATGATTGTTCTCCCAGCTGATGAATTTTCACCTTCGAGTAAACAAATTTTCCTAATCTTTCTGTTCAAGCGCCATCTAC” gave a binding signal (RPM ratio (pull-down/input)) of 0.23.
“GATGATTGTTCTCCCAGCTGATGAATTACCGTGATCGAGTAAACAAATTTTCCTAATCTTTCTGTTCAAGCGCCATCTAC” was tested, and the binding signal (RPM ratio (pull-down/input)) was 0.455.
In the case of “GATGATTGTTCTCCCAGCTGATGAATTGCTGGCCTCGAGTAAACAAATTTTCCTAATCTTTCTGTTCAAGCGCCATCTAC”, the binding signal (RPM ratio (pull-down/input)) is reported as 0.655.
For “GATGATTGTTCTCCCAGCTGATGAATTATATCCATCGAGTAAACAAATTTTCCTAATCTTTCTGTTCAAGCGCCATCTAC”, the binding signal (RPM ratio (pull-down/input)) was 0.488.
Sequence “GATGATTGTTCTCCCAGCTGATGAATTAAAGGGTTCGAGTAAACAAATTTTCCTAATCTTTCTGTTCAAGCGCCATCTAC” has a binding signal (RPM ratio (pull-down/input)) of 0.368.
“GATGATTGTTCTCCCAGCTGATGAATTCTATGGCTCGAGTAAACAAATTTTCCTAATCTTTCTGTTCAAGCGCCATCTAC” showed a binding signal (RPM ratio (pull-down/input)) of 0.47.
Sequence “GATGATTGTTCTCCCAGCTGATGAATTTGACTGCTCGAGTAAACAAATTTTCCTAATCTTTCTGTTCAAGCGCCATCTAC” has a binding signal (RPM ratio (pull-down/input)) of 0.515.
“GATGATTGTTCTCCCAGCTGATGAATTTACCTGTTCGAGTAAACAAATTTTCCTAATCTTTCTGTTCAAGCGCCATCTAC” gave a binding signal (RPM ratio (pull-down/input)) of 0.503.
Work on “GATGATTGTTCTCCCAGCTGATGAATTTAATAAATCGAGTAAACAAATTTTCCTAATCTTTCTGTTCAAGCGCCATCTAC” yielded a binding signal (RPM ratio (pull-down/input)) of 0.244.
“GATGATTGTTCTCCCAGCTGATGAATTATTTCTATCGAGTAAACAAATTTTCCTAATCTTTCTGTTCAAGCGCCATCTAC” gave a binding signal (RPM ratio (pull-down/input)) of 0.413.
“GATGATTGTTCTCCCAGCTGATGAATTCTGTGCTTCGAGTAAACAAATTTTCCTAATCTTTCTGTTCAAGCGCCATCTAC” gave a binding signal (RPM ratio (pull-down/input)) of 1.15.
“GATGATTGTTCTCCCAGCTGATGAATTTGCACTCTCGAGTAAACAAATTTTCCTAATCTTTCTGTTCAAGCGCCATCTAC” showed a binding signal (RPM ratio (pull-down/input)) of 1.
In the case of “GATGATTGTTCTCCCAGCTGATGAATTGCGTCTCTCGAGTAAACAAATTTTCCTAATCTTTCTGTTCAAGCGCCATCTAC”, the binding signal (RPM ratio (pull-down/input)) is reported as 1.58.
“GATGATTGTTCTCCCAGCTGATGAATTGTGCCAGTCGAGTAAACAAATTTTCCTAATCTTTCTGTTCAAGCGCCATCTAC” gave a binding signal (RPM ratio (pull-down/input)) of 3.33.
“GATGATTGTTCTCCCAGCTGATGAATTATGGTCGTCGAGTAAACAAATTTTCCTAATCTTTCTGTTCAAGCGCCATCTAC” was tested, and the binding signal (RPM ratio (pull-down/input)) was 0.701.
Work on “GATGATTGTTCTCCCAGCTGATGAATTATCCGCCTCGAGTAAACAAATTTTCCTAATCTTTCTGTTCAAGCGCCATCTAC” yielded a binding signal (RPM ratio (pull-down/input)) of 0.497.
In the case of “GATGATTGTTCTCCCAGCTGATGAATTAATAACATCGAGTAAACAAATTTTCCTAATCTTTCTGTTCAAGCGCCATCTAC”, the binding signal (RPM ratio (pull-down/input)) is reported as 1.82.
For “GATGATTGTTCTCCCAGCTGATGAATTATCTGCCTCGAGTAAACAAATTTTCCTAATCTTTCTGTTCAAGCGCCATCTAC”, the binding signal (RPM ratio (pull-down/input)) was 0.443.
Sequence “GATGATTGTTCTCCCAGCTGATGAATTTTCTCGTTCGAGTAAACAAATTTTCCTAATCTTTCTGTTCAAGCGCCATCTAC” has a binding signal (RPM ratio (pull-down/input)) of 0.27.
“GATGATTGTTCTCCCAGCTGATGAATTGGATTGGTCGAGTAAACAAATTTTCCTAATCTTTCTGTTCAAGCGCCATCTAC” gave a binding signal (RPM ratio (pull-down/input)) of 1.26.
With “GATGATTGTTCTCCCAGCTGATGAATTGGTATGGTCGAGTAAACAAATTTTCCTAATCTTTCTGTTCAAGCGCCATCTAC” the binding signal (RPM ratio (pull-down/input)) was 1.45.
“GATGATTGTTCTCCCAGCTGATGAATTATAAGTGTCGAGTAAACAAATTTTCCTAATCTTTCTGTTCAAGCGCCATCTAC” showed a binding signal (RPM ratio (pull-down/input)) of 0.624.
With “GATGATTGTTCTCCCAGCTGATGAATTGAGCGTTTCGAGTAAACAAATTTTCCTAATCTTTCTGTTCAAGCGCCATCTAC” the binding signal (RPM ratio (pull-down/input)) was 3.
Sequence “GATGATTGTTCTCCCAGCTGATGAATTTTATCGATCGAGTAAACAAATTTTCCTAATCTTTCTGTTCAAGCGCCATCTAC” has a binding signal (RPM ratio (pull-down/input)) of 0.479.
“GATGATTGTTCTCCCAGCTGATGAATTAACCCGGTCGAGTAAACAAATTTTCCTAATCTTTCTGTTCAAGCGCCATCTAC” showed a binding signal (RPM ratio (pull-down/input)) of 0.173.
With “GATGATTGTTCTCCCAGCTGATGAATTAAGGTAATCGAGTAAACAAATTTTCCTAATCTTTCTGTTCAAGCGCCATCTAC” the binding signal (RPM ratio (pull-down/input)) was 0.521.
For “GATGATTGTTCTCCCAGCTGATGAATTCAGCTTCTCGAGTAAACAAATTTTCCTAATCTTTCTGTTCAAGCGCCATCTAC”, the binding signal (RPM ratio (pull-down/input)) was 1.94.
Sequence “GATGATTGTTCTCCCAGCTGATGAATTGACGCTGTCGAGTAAACAAATTTTCCTAATCTTTCTGTTCAAGCGCCATCTAC” has a binding signal (RPM ratio (pull-down/input)) of 0.713.
“GATGATTGTTCTCCCAGCTGATGAATTACCAGCCTCGAGTAAACAAATTTTCCTAATCTTTCTGTTCAAGCGCCATCTAC” showed a binding signal (RPM ratio (pull-down/input)) of 0.34.
For “GATGATTGTTCTCCCAGCTGATGAATTCGCATAATCGAGTAAACAAATTTTCCTAATCTTTCTGTTCAAGCGCCATCTAC”, the binding signal (RPM ratio (pull-down/input)) was 0.609.
“GATGATTGTTCTCCCAGCTGATGAATTGATCTACTCGAGTAAACAAATTTTCCTAATCTTTCTGTTCAAGCGCCATCTAC” gave a binding signal (RPM ratio (pull-down/input)) of 0.425.
In the case of “GATGATTGTTCTCCCAGCTGATGAATTGGCGGCTTCGAGTAAACAAATTTTCCTAATCTTTCTGTTCAAGCGCCATCTAC”, the binding signal (RPM ratio (pull-down/input)) is reported as 0.377.
